Assay results as given in patent publication US20260137794A1, “LIGAND-DRUG CONJUGATE AND USE THEREOF” (SYSTIMMUNE, INC., priority 2022, published 2026).

Key:
[1] = molecular target: recombinant human CD33 protein (human, UniProt P20138 18-259, limits assumed); assay: ELISA, recombinant human CD33 coated on the plate, conjugate titrated 3-fold from 2 ug/mL
[2] = test system: N87; assay: Trop2 cell killing experiment by MTS method, N87; type: cell-based, Human; conditions: N87, Trop2 high expression, 5 days, read-out: Test drug IC50
Protocol: (§1) Pharmacodynamic test at cellular level: cell plating was performed on a 96-well plate in a certain density. After the cells adhered to the wall (usually taking at least 4 h), a series of drugs in several folds of dilution were added to each well plate to act for a certain period of time, for killing the cells. At the end of action of the drugs, a certain amount of MTS was added to react at 37° C. under 5% CO2 for 1-4 h. After color development using the MTS reagent, the OD 490 nm absorbance value was detected using a microplate reader, and then the IC50 for cell killing was analyzed and calculated.
(§2) Before addition, according to the concentration of each test sample, a drug (5×mother liquor concentration) was prepared using a preheated 1% FBS culture medium according to the initial concentration of 5.0 μM, and then diluted according to 10 folds of gradient concentration, totaling 8 detection points, followed by standing for later use. During the preparation, each concentration was uniformly mixed using an oscillator, specifically, oscillating for 2-3 sec at a time, with an interval of 1 sec, and then oscillating again, repeating 2-3 times.
(§3) The final concentration of the antibody and the antibody conjugated drug was 0 (Vehicle), 0.6 pM, 4.25 pM, 29.75 pM, 0.21 nM, 1.46 nM, 10.20 nM, 71.43 nM, 500 nM. […]

[3] = test system: heterogeneous tumor cancer cell A431+SW620; assay: Trop2 cell killing experiment by MTS method, A431+SW620; type: cell-based, Human; conditions: A431 + SW620, Trop2 negative, 5 days, read-out: Test drug IC50
Protocol: as §1, §2, §3

[4] = test system: Trop2 high-expression cell line and negative cell line; assay: Trop2 cell killing experiment, conclusion over the 2 cell models; type: cell-based, Human; conditions: in words; N87 and A431+SW620
Protocol: as §1, with “calculated. […]” for “calculated.”
Taking a Trop2 high-expression cell line N87 and a heterogeneous tumor cancer cell A431+SW620 as target cells respectively, the Trop2 expression level of the target cell was firstly determined by flow analysis, and then the cell killing activity of the Trop2 dual-drug ADC was evaluated by MTS method. […]

UniProt P20138, sequence (P20138 18-259 limits assumed): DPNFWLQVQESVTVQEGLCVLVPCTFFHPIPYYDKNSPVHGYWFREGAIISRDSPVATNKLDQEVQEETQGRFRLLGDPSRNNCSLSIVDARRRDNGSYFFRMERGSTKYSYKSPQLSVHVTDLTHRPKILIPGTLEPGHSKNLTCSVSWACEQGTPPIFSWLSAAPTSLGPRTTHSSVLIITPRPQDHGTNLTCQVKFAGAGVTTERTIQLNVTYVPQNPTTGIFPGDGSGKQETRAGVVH

binding result [1] | Molecule | IC50 [2] [nM] | IC50 [3] [nM] | killing activity against the two cell lines [4]
binds | ANTI-CD33-Ex01 (10) (other, Ex01 linker-drug coupled via cysteine thiol groups; total DAR 10 per antibody; positions not given, also called mono-drug ADC) light: DIQLTQSPSTLSASVGDRVTITCRASESLDNYGIRFLTWFQQKPGKAPKLLMYAASNQGSGVPSRFSGSGSGTEFTLTISSLQPDDFATYYCQQTKEVPWSFGQGTKVEVKRTVAAPSVFIFPPSDEQLKSGTASVVCLLNNFYPREAKVQWKVDNALQSGNSQESVTEQDSKDSTYSLSSTLTLSKADYEKHKVYACEVTHQGLSSPVCTKSFNRGEC heavy: EVQLVQSGAEVKKPGSSVKVSCKASGYTITDSNIHWVRQAPGQSLEWIGYIYPYNGGTDYNQKFKNRATLTVDNPTNTAYMELSSLRSEDTAFYYCVNGNPWLAYWGQGTLVTVSS[human IgG1 constant region not spelt out] | – | – | –
binds | ANTI-CD33-R01-1 (2)-Ex01 (8) (other, R01-1 (2 per antibody) and Ex01 (8 per antibody) linker-drugs coupled via cysteine thiol groups; positions not given, also called ANTI-CD33-R01-1-Ex01; dual-drug ADC) light: DIQLTQSPSTLSASVGDRVTITCRASESLDNYGIRFLTWFQQKPGKAPKLLMYAASNQGSGVPSRFSGSGSGTEFTLTISSLQPDDFATYYCQQTKEVPWSFGQGTKVEVKRTVAAPSVFIFPPSDEQLKSGTASVVCLLNNFYPREAKVQWKVDNALQSGNSQESVTEQDSKDSTYSLSSTLTLSKADYEKHKVYACEVTHQGLSSPVCTKSFNRGEC heavy: EVQLVQSGAEVKKPGSSVKVSCKASGYTITDSNIHWVRQAPGQSLEWIGYIYPYNGGTDYNQKFKNRATLTVDNPTNTAYMELSSLRSEDTAFYYCVNGNPWLAYWGQGTLVTVSS[human IgG1 constant region not spelt out] | – | – | –
binds | ANTI-CD33-Ex01 (2)-R01-1 (8) (other, Ex01 (2 per antibody) and R01-1 (8 per antibody) linker-drugs coupled via cysteine thiol groups; positions not given, also called ANTI-CD33-Ex01-R01-1; dual-drug ADC) light: DIQLTQSPSTLSASVGDRVTITCRASESLDNYGIRFLTWFQQKPGKAPKLLMYAASNQGSGVPSRFSGSGSGTEFTLTISSLQPDDFATYYCQQTKEVPWSFGQGTKVEVKRTVAAPSVFIFPPSDEQLKSGTASVVCLLNNFYPREAKVQWKVDNALQSGNSQESVTEQDSKDSTYSLSSTLTLSKADYEKHKVYACEVTHQGLSSPVCTKSFNRGEC heavy: EVQLVQSGAEVKKPGSSVKVSCKASGYTITDSNIHWVRQAPGQSLEWIGYIYPYNGGTDYNQKFKNRATLTVDNPTNTAYMELSSLRSEDTAFYYCVNGNPWLAYWGQGTLVTVSS[human IgG1 constant region not spelt out] | – | – | –
– | ANTI-Trop2-1 mAb: Naked anti-Trop2 antibody; light chain SEQ ID NO: 3, heavy chain SEQ ID NO: 4 (antibody) heavy: QVQLVQSGAEVKKPGASVKLSCKASGYTFTSFDINWVRQAPEQRLEWMGWIFPGDGNTKYSQKFQGRATITRDTSASTAYMELSSLRSEDTAVYYCVRGEALYYFDYWGQGTLVTVSS[human IgG1 constant region not spelt out] light: DIQMTQSPSSLSASVGDRVTITCRASQDINKYLAWYQQKPGKVPKLLIYSTSTLQSGVPSRFSGSGSGTDFTLTISSLQPEDVATYYCLQYDDLFTFGQGTKLEIKRTVAAPSVFIFPPSDEQLKSGTASVVCLLNNFYPREAKVQWKVDNALQSGNSQESVTEQDSKDSTYSLSSTLTLSKADYEKHKVYACEVTHQGLSSPVTKSFNRGEC | > 500 | > 500 | no significant killing activity
– | ANTI-Trop2-2 mAb: Naked anti-Trop2 antibody; light chain SEQ ID NO: 5, heavy chain SEQ ID NO: 6 (antibody) heavy: QVQLVQSGAEVKKPGASVKLSCKASGYTFTSFDINWVRQAPEQRLEWMGWIFPGDGNTKYSQKFQGRATITRDTSASTAYMELSSLRSEDTAVYYCVRGEALYYFDYWGQGTLVTVSS[human IgG1 constant region not spelt out] light: DIQMTQSPSSLSASVGDRVTITCRASQDINKYLAWYQQKPGKVPKLLIYSTSTLQSGVPSRFSGSGSGTDFTLTISSLQPEDVATYYCLQYDDLFTFGQGTKLEIKRTVAAPSVFIFPPSDEQLKSGTASVVCLLNNFYPREAKVQWKVDNALQSGNSQESVTEQDSKDSTYSLSSTLTLSKADYEKHKVYACEVTHQGLSSPVCTKSFNRGEC | > 500 | > 500 | no significant killing activity
